From the supplement of paper PMC9151546
Single values are uncertain, as repeats are few or missing.

Columns and labels:
[1] = system: CHO-K1; assay: micronucleus frequency (% of nucleated events); higher = more micronuclei (genotoxic)
[2] = system: CHO-K1; assay: hypodiploid nuclei frequency (% of nucleated events); higher = more hypodiploid events (aneugenic)
[3] = system: CHO-K1; assay: relative survival (nuclei to bead ratio vs DMSO control) (% of vehicle control); higher = more surviving cells
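Wherever hypodiploid nuclei frequency (% of nucleated events) is given: hypodiploid nuclei gated on a flow cytometer with 488 nm excitation after SYTOX Green staining, cultures at 37 °C, positive controls vinblastine without S9 and cyclophosphamide with S9.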
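Wherever micronucleus frequency (% of nucleated events) is given: cells lysed with nuclei stained by SYTOX Green, then micronucleus-gated events counted against nucleated events by flow cytometry with 488 nm excitation.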
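Wherever relative survival (nuclei to bead ratio vs DMSO control) is given: Lysed-cell nuclei stained with SYTOX Green and counted against counting beads by flow cytometry at 488 nm excitation, with vinblastine (no S9) and cyclophosphamide (plus S9) as positive controls.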

OC(CCl)CCl [1,3-Dichloro-2-propanol]
Conditions	hypodiploid nuclei frequency, [2] [%]	micronucleus frequency, [1] [%]	relative survival, [3]
concentration: 4.5 (µM), S9 metabolic activation: with S9, exposure time: 3-4 hours	0.18	0.9	116
concentration: 4.5 (µM), S9 metabolic activation: without S9, exposure time: 24 hours	0.34	0.96	106
concentration: 5.63 (µM), S9 metabolic activation: with S9, exposure time: 3-4 hours	0.08	0.8	107
concentration: 5.63 (µM), S9 metabolic activation: without S9, exposure time: 24 hours	0.6	1.24	97.5
concentration: 7.04 (µM), S9 metabolic activation: with S9, exposure time: 3-4 hours	0.2	0.84	121
concentration: 7.04 (µM), S9 metabolic activation: without S9, exposure time: 24 hours	0.38	1.04	120
concentration: 8.8 (µM), S9 metabolic activation: with S9, exposure time: 3-4 hours	0.2	0.72	117
concentration: 8.8 (µM), S9 metabolic activation: without S9, exposure time: 24 hours	0.36	1.34	131
concentration: 11 (µM), S9 metabolic activation: with S9, exposure time: 3-4 hours	0.2	0.9	156
concentration: 11 (µM), S9 metabolic activation: without S9, exposure time: 24 hours	0.52	1.48	122
concentration: 13.7 (µM), S9 metabolic activation: with S9, exposure time: 3-4 hours	0.2	1.02	128
concentration: 13.7 (µM), S9 metabolic activation: without S9, exposure time: 24 hours	0.36	1.36	109
concentration: 17.2 (µM), S9 metabolic activation: with S9, exposure time: 3-4 hours	0.24	1.48	147
concentration: 17.2 (µM), S9 metabolic activation: without S9, exposure time: 24 hours	0.58	1.36	117
concentration: 21.5 (µM), S9 metabolic activation: with S9, exposure time: 3-4 hours	0.32	1.02	158
concentration: 21.5 (µM), S9 metabolic activation: without S9, exposure time: 24 hours	0.44	1.3	107
concentration: 26.8 (µM), S9 metabolic activation: with S9, exposure time: 3-4 hours	0.18	0.88	86
concentration: 26.8 (µM), S9 metabolic activation: without S9, exposure time: 24 hours	0.46	1.46	94.9
concentration: 33.6 (µM), S9 metabolic activation: with S9, exposure time: 3-4 hours	0.16	0.92	102
concentration: 33.6 (µM), S9 metabolic activation: without S9, exposure time: 24 hours	0.5	1.36	120
concentration: 41.9 (µM), S9 metabolic activation: with S9, exposure time: 3-4 hours	0.12	1.02	104
concentration: 41.9 (µM), S9 metabolic activation: without S9, exposure time: 24 hours	0.6	1.42	97.5
concentration: 52.4 (µM), S9 metabolic activation: with S9, exposure time: 3-4 hours	0.28	0.82	119
concentration: 52.4 (µM), S9 metabolic activation: without S9, exposure time: 24 hours	0.54	1.02	101
concentration: 65.5 (µM), S9 metabolic activation: with S9, exposure time: 3-4 hours	0.18	1.06	109
concentration: 65.5 (µM), S9 metabolic activation: without S9, exposure time: 24 hours	0.66	1.26	100
concentration: 81.9 (µM), S9 metabolic activation: with S9, exposure time: 3-4 hours	0.32	1.06	115
concentration: 81.9 (µM), S9 metabolic activation: without S9, exposure time: 24 hours	0.72	1.32	118
concentration: 102 (µM), S9 metabolic activation: with S9, exposure time: 3-4 hours	0.16	1.32	107
concentration: 102 (µM), S9 metabolic activation: without S9, exposure time: 24 hours	0.8	1.54	89.7
concentration: 128 (µM), S9 metabolic activation: with S9, exposure time: 3-4 hours	0.18	1.2	120
concentration: 128 (µM), S9 metabolic activation: without S9, exposure time: 24 hours	0.84	1.42	103
concentration: 160 (µM), S9 metabolic activation: with S9, exposure time: 3-4 hours	0.2	1.14	128
concentration: 160 (µM), S9 metabolic activation: without S9, exposure time: 24 hours	0.98	1.42	99.7
concentration: 200 (µM), S9 metabolic activation: with S9, exposure time: 3-4 hours	0.26	1.52	109
concentration: 200 (µM), S9 metabolic activation: without S9, exposure time: 24 hours	1	1.7	77

c1ccc2[nH]c(-c3cscn3)nc2c1 [Thiabendazole]
Conditions	hypodiploid nuclei frequency, [2] [%]	micronucleus frequency, [1] [%]	relative survival, [3]
concentration: 4.5 (µM), S9 metabolic activation: with S9, exposure time: 3-4 hours	0.19	1.31	101
concentration: 4.5 (µM), S9 metabolic activation: without S9, exposure time: 24 hours	1.19	3.14	84.5
concentration: 5.63 (µM), S9 metabolic activation: with S9, exposure time: 3-4 hours	0.36	1.56	113
concentration: 5.63 (µM), S9 metabolic activation: without S9, exposure time: 24 hours	1.22	2.89	103
concentration: 7.04 (µM), S9 metabolic activation: with S9, exposure time: 3-4 hours	0.26	1.58	104
concentration: 7.04 (µM), S9 metabolic activation: without S9, exposure time: 24 hours	1.37	3.48	98.4
concentration: 8.8 (µM), S9 metabolic activation: with S9, exposure time: 3-4 hours	0.29	1.43	104
concentration: 8.8 (µM), S9 metabolic activation: without S9, exposure time: 24 hours	1.18	2.74	108
concentration: 11 (µM), S9 metabolic activation: with S9, exposure time: 3-4 hours	0.17	1.37	117
concentration: 11 (µM), S9 metabolic activation: without S9, exposure time: 24 hours	1.15	3.01	111
concentration: 13.7 (µM), S9 metabolic activation: with S9, exposure time: 3-4 hours	0.33	1.46	104
concentration: 13.7 (µM), S9 metabolic activation: without S9, exposure time: 24 hours	1.26	4.3	92.8
concentration: 17.2 (µM), S9 metabolic activation: with S9, exposure time: 3-4 hours	0.28	1.39	107
concentration: 17.2 (µM), S9 metabolic activation: without S9, exposure time: 24 hours	1.21	3.21	101
concentration: 21.5 (µM), S9 metabolic activation: with S9, exposure time: 3-4 hours	0.45	1.64	102
concentration: 21.5 (µM), S9 metabolic activation: without S9, exposure time: 24 hours	1.5	3.46	114
concentration: 26.8 (µM), S9 metabolic activation: with S9, exposure time: 3-4 hours	0.4	1.09	115
concentration: 26.8 (µM), S9 metabolic activation: without S9, exposure time: 24 hours	2.16	2.61	93.41
concentration: 33.6 (µM), S9 metabolic activation: with S9, exposure time: 3-4 hours	0.29	1.32	104
concentration: 33.6 (µM), S9 metabolic activation: without S9, exposure time: 24 hours	1.98	3.05	93.3
concentration: 41.9 (µM), S9 metabolic activation: with S9, exposure time: 3-4 hours	0.23	1.53	98.9
concentration: 41.9 (µM), S9 metabolic activation: without S9, exposure time: 24 hours	2.49	2.94	92.7
concentration: 52.4 (µM), S9 metabolic activation: with S9, exposure time: 3-4 hours	0.21	1.38	117
concentration: 52.4 (µM), S9 metabolic activation: without S9, exposure time: 24 hours	2.8	2.87	82.71
concentration: 65.5 (µM), S9 metabolic activation: with S9, exposure time: 3-4 hours	0.31	1.26	113
concentration: 65.5 (µM), S9 metabolic activation: without S9, exposure time: 24 hours	3.08	3.27	105
concentration: 81.9 (µM), S9 metabolic activation: with S9, exposure time: 3-4 hours	0.39	1.36	110
concentration: 81.9 (µM), S9 metabolic activation: without S9, exposure time: 24 hours	3.32	3.6	93.7
concentration: 102 (µM), S9 metabolic activation: with S9, exposure time: 3-4 hours	0.38	1.19	103
concentration: 102 (µM), S9 metabolic activation: without S9, exposure time: 24 hours	3.88	4.35	73.8
concentration: 128 (µM), S9 metabolic activation: with S9, exposure time: 3-4 hours	0.32	1.34	111
concentration: 128 (µM), S9 metabolic activation: without S9, exposure time: 24 hours	4.14	6.75	72.1
concentration: 160 (µM), S9 metabolic activation: with S9, exposure time: 3-4 hours	0.32	1.19	102
concentration: 160 (µM), S9 metabolic activation: without S9, exposure time: 24 hours	5.41	9.81	77.2
concentration: 200 (µM), S9 metabolic activation: with S9, exposure time: 3-4 hours	0.32	1.49	102
concentration: 200 (µM), S9 metabolic activation: without S9, exposure time: 24 hours	6.86	14	57.52
